Assay results from the supplement of paper PMC12632987.
Over roughly 1,800 sequences, “median log2 fold change of GCK-ALFA target abundance (FLAG IP / Myc IP barcode read proportion)” has its median near 0.14; the lowest 2% begin near -0.84. This is one part of the list.

B1: traf2_out_15_48_1336 (protein)
chain: MTEALQKAAREFNERADKAREEVAKTLKELLPKVNPELQKKVEELLKLVESGAPLRDIRARLKELQKEANPEVQKELDKQIEKIDEVLREGSKRFNEVLK
B2: traf2_out_13_95_1074 (protein)
chain: SLELAKKIMEIADKAEEEMLKLLKKAAEELKDNPEAVKVLEEAAKLAETKGWSAAIHLLKEAAKADPENKEKFEALIKELEAIRTKAGKEVAKLIKEAEE
B3: traf2_out_12_187_948 (protein)
chain: SVEEELLEAAKAGAKAALKALAAAGADDPRLQELRKLLKEAEKALKKNPSIASDLLVAASLVRRAVRLLEDGADPEEVEAALEEARRELEEVLKEAKKLE
B4: traf2_out_11_155_737 (protein)
chain: EEKQKLIQEMNDKIMDLFEEAREKALEIAEEAAKAHPEHKEAIEKKIEESKGLSYRSFIRSMIELFKELGLEEYAKKLEELLEETQKKASKIVIETEKKL
B5: traf2_out_13_95_1053 (protein)
chain: SEETAKKIMEVADKMEEEALALLERAQAEVADDPEAKAVMDEALRLARTRGISEAIHLLREAQAADPAHKARFAALIAELEALRREAGRKVAEILKEEKE
B6: traf2_out_11_155_736 (protein)
chain: EEKQKLIQEMNDKIMELFEKAKEEALKIVEEAAKKHPEHKEKLEAKIEETKGLSYRSFILQLIRLFKELGLEEYAKKLEELLEKTQKEASKIVIETEKKL
B7: traf2_out_11_169_889 (protein)
chain: AEAEKNRKIIDKALELNDKAREELRAYALALAREAGLDVAAVEAIFAANAGKSLSAVAAALIAHFRAQGAEAAAAAVEAKHEELKEKINKEMTEFIKSLE
B8: traf2_out_17_162_1510 (protein)
chain: SPVEALEARFRAELAALREELERLKKKTENLEKMSKEEITDLLVEASEARRRARALAEEVARHASLLGEERAAALRAEAEAIAEELQRIANKAYKELEKK
B9: traf2_out_17_162_1617 (protein)
chain: MSIEEKLKKLKEELEKLKKELEELKKKLENIDKLSKEELTDLLVEASEAKRKARQAIVELEKLKGEIDKKTYEELKKEFEKLAEEFQKLANKFYKKLEEL
B10: traf2_out_6_156_2378 (protein)
chain: MKEKILEEAKKEIKELIKKLAEASEEKKIKYISRIAGAVYRALQKLREAGASVEEIKEAVEELKETAEKEAKKAGLPQDTIDLLLSSINAVGEVALREAE
B11: traf2_out_18_76_1958 (protein)
chain: HMTPEERLAELEAKIEEVRERYQRVATRALKLLPKLSPEDRSKVMDLLADASEALRKAELALEEAKRTGKLEEKEKEINEQLKKAEEKIEELEKLVEELE
B12: traf2_out_20_3_2239 (protein)
chain: SELEEELERELERARRLLEELAPLLPAEDAARLRALLEEAERLYKTDYTDALVALSELRRAALELAERARAAGDEETAARLEELADEVGRAMQLVYKIIE
B13: traf2_out_5_63_2363 (protein)
chain: SEREELTALAREADKLVRELLEAAKAGDEAKVEALIARAVADPELARLVLGILKGEAKYYELLGDKPEEAKIAKELAERLEAARAAAAAARAAAAAAAAA
B14: traf2_out_17_178_1719 (protein)
chain: SKEEYRKKISELTDKLIDLSEEAAEKLLELAEKEGKLTPEELAALREARRRGSNNDVLALGEKIAPKLSSKEEAEKLIEEFKKKSKELSKKIAEAYEKYE
B15: traf2_out_8_15_2559 (protein)
chain: SLEEAAKKDLEKLKAASDGDEKTFVNFVIGFAKGELRLAKIYLEEGNKELARKTLEYAKALMEEALKYLKEKKSKYLPTLEKAAEELKKEAEKIEKEIKK
B16: traf2_out_17_60_1762 (protein)
chain: SAEEEAERLKEEARRAIEEAEELVERVDKKLEAGTLTADEAMDYLVELSERRRRLEALREKLKAKGPEFAPLVEEIERAIERIRRTMNRVGKKLEELLAA
B17: traf2_out_6_156_2438 (protein)
chain: SVEEILAATKAELKELIKALAKASEERKIFYINRIAGTVYRGLQALRDGGASLEELRAFAEELKAFLKEAADAAGLDEDTKNLLLSSMNAVFDVALASAA
B18: traf2_out_17_178_1702 (protein)
chain: SKEEIRKKISELTDELIDLSEEYGRRLLALARAEGVLSPEELAALEAALASGSNRTLLATARELLPRSAASPELLALLAEFEEEYRRISKKIAEAYEKYE
B19: traf2_out_5_189_2329 (protein)
chain: SSAEEERKELTEKAKELAERARKLIKELLEKGKSHEEIKEELLKELEKLSIEDAQLYLGIAYAILLNIADVNNDEELREAAKELREEGLKLIEERRKEEA
B20: traf2_out_20_3_2144 (protein)
chain: EELEKELEKELEEALKILKEASKKADPETAKKLDALAKELEASKSLSYSDQLVVVSKVRREVLLLSQQAKAAGDEELAKLLEEAADELNEAANLLMKIIE
B21: traf2_out_11_169_843 (protein)
chain: AEREKNRAINDHALELNDKAKEELKEFAKKLAKEAGLDVEEIDKIFEKNKGKSFSYIAGSLIDYFTSKGKEDAAKKVLEKYEELKEKINKESTAFIKSLE
B22: traf2_out_20_3_2053 (protein)
chain: EELEKEAEKEFKKLKAKLEEIKKLVDPETAAKLEAALAEVEEAKKKGYEEALIATSKLRRLLLELAEEARKEGKEEVAKLLEEAAEYAQKLMNIIYKIIE
B23: traf2_out_1_156_900 (protein)
chain: SASDEQYEKLKKKLHQPEYSALLRRAAGALADIVDLLEEAKAAGAPEEVLERLEELRREAERLLSQLVSDPNLTLEEARRLAEEIEELRREAEELVREWR
B24: traf2_out_15_180_1333 (protein)
chain: HMSEEEKKMIEVANEIVDKSEEKAKELAEKRGLDLATVLAISRQITSAAQRELGLGDFDQAKEDIAQIIAQVPEEYREAVTELAEYILKLVKEKYEELKK
B25: traf2_out_6_166_2473 (protein)
chain: DAEIRARIREVVKEFSKYSPEDIIEAFEKVAKERSDHRALMARQLASGVRQGQKAGLPVETIISAFADGMLALGVPPEDILALLEEILEEVKKIVAEKKA
B26: traf2_out_1_33_1032 (protein)
chain: SEAKERRTLRIANEAASRLYKVIREQLERIRALLAAGASLEEIEAAAEEARKEVEEKAEEILEEVEKTEDEETVNLVKSVLTSLKVIFDRELAELLAEAR
B27: traf2_out_11_104_637 (protein)
chain: LTREQAREFNDFAMAQEDQARAIAAALAAELAAAGETAAAARVNAALADSGAGISTFRNLLEDLLPELSPAAAAAAEAAIAELRALQKKVSDKLNELEKK
B28: traf2_out_20_3_2205 (protein)
chain: SELEEELEKELEEALKLLKEAAKLADEETKKRLEELIKRLKESRELSYDDRLVELSEIRAEVLRLAQEAKAKGNEELAKVLEEAAEALQRAMNLVYKIIE
B29: traf2_out_11_155_689 (protein)
chain: SKERELNNELVDETLAVGERLKAEIDAIAAEAAAAHPEHAERIAAVRAESARFSERTYAGRMAALFRELGLDEEAARVEALLARAQKEKNEILKRIEAKL

Target: T1, TRAF2, Q12933
T1 chain: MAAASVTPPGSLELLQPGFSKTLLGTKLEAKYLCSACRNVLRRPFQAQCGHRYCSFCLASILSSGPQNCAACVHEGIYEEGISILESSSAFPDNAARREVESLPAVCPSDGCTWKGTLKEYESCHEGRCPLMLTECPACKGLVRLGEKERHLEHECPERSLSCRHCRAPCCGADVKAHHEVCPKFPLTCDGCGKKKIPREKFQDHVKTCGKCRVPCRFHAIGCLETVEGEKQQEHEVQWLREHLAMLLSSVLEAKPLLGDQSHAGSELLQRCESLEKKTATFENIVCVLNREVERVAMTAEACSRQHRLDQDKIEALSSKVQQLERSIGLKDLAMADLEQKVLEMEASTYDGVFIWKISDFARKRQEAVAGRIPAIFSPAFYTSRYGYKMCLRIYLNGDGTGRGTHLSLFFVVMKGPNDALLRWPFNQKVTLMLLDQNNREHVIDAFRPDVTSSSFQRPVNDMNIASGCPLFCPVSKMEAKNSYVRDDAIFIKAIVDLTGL
Test: median log2 fold change of GCK-ALFA target abundance (FLAG IP / Myc IP barcode read proportion) (log2 ratio); each designed protein is fused to an ALFA-tag nanobody in HEK293 cells to bring the named protein to FLAG-tagged glucokinase (GCK); Myc marks an untargeted standard; higher = target protein stabilised (more abundant)
Details: target protein: 3xFLAG-MCP-GCK-ALFA reporter; HEK293 landing pad (RPLP)
How it was run: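 An ALFA-nanobody-fused binder library was recombined into HEK293 landing-pad cells and induced with 2 μg mL^−1 doxycycline. Cells were transfected with a plasmid expressing a FLAG-tagged target and a Myc-tagged standard. After 48 h, lysates underwent anti-FLAG and anti-Myc immunoprecipitation, and circular RNA barcodes were reverse transcribed, amplified and sequenced. Target abundance is the per-binder median log2 ratio of FLAG to Myc barcode read proportions. Barcodes needed ≥10^−7 proportion in both replicates, binders ≥3 barcodes per replicate, and a 10^−6 pseudocount was added; the two replicates were pooled.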

Row | Binder | median log2 fold change
1 | B1 | -0.0278
2 | B2 | -0.3
3 | B3 | 0.215
4 | B4 | -0.0235
5 | B5 | 0.192
6 | B6 | 0.079
7 | B7 | 0.371
8 | B8 | 0.111
9 | B9 | 0.106
10 | B10 | 0.148
11 | B11 | -0.505
12 | B12 | 0.263
13 | B13 | -0.28
14 | B14 | 0.405
15 | B15 | -0.0917
16 | B16 | 0.153
17 | B17 | -0.0848
18 | B18 | 0.188
19 | B19 | 0.322
20 | B20 | 0.301
21 | B21 | 0.0832
22 | B22 | 0.328
23 | B23 | -0.0243
24 | B24 | 0.451
25 | B25 | 0.1
26 | B26 | -0.138
27 | B27 | 0.379
28 | B28 | 0.339
29 | B29 | -0.332
